Results: PubChem BioAssay AID1671194 (National Center for Advancing Translational Sciences (NCATS), 2021)
Among all 140,000 compounds or so, about 240 (0.17%) were called active. The shares of active, inactive and inconclusive entries below differ from those in the screen. Calls follow the shape of the dose curve; as a rule, active = well fitted inhibition curve with a large enough effect; inconclusive = small, poorly fitted or top-dose-only effect; inactive = no such curve, though single readings can be large or run the other way. Where the call is inconclusive, the potency comes from a doubtful curve fit.

assay: Primary qHTS assay for inhibitors of alpha-synuclein gene (SNCA) expression; details: HEK-293 SNCA-luciferase knock-in, luminescence, 24 h; series mostly up to 57.2 µM; also: nearly all actives have a fitted effect of over 45% in size
Potency is read from the fitted curve at half-maximal effect; tags tell the direction and shape of the fitted curve.

Potency, active:
O=C(NCc1ccccc1)c1csc(Nc2ccncn2)n1 9.61 µM, COC(=O)[C@]12CCC(C)(C)C[C@@H]1[C@@H]1C(=O)C=C3[C@@]4(C)C=C(C#N)C(=O)C(C)(C)[C@@H]4CC[C@@]3(C)[C@]1(C)CC2 8.57 µM

Potency, inconclusive:
COc1ccc(N2CCN(c3nc(C(=O)NCc4ccco4)cs3)CC2)cc1 31.6 µM [inhibitor, single point], CCn1nc(C)cc1C(=O)N1C[C@@H](CN2CCN(C)CC2)[C@@H](CO)C1 5.62 µM [inhibitor, partial curve], O=C(NCc1ccc2c(c1)OCO2)c1ccc2c(c1)N(C(=O)c1ccc(F)cc1)CC2 11.2 µM [inhibitor, partial curve, poor fit], Nc1nc(C2CC(N)C2)cc(N2CCCN(Cc3cccs3)CC2)n1 (configuration not stated) 0.891 µM [inhibitor, full curve, poor fit], CC1=C[C@@H](CNC(=O)C2CCCCC2)[C@H](C(C)C)C[C@H]1CC(=O)N1CCN(c2ccccn2)CC1 25.1 µM [inhibitor, single point], COc1ccccc1-c1[nH]ncc1CN1CCC2(CC1)CC(O)CCO2 (configuration not stated) 8.91 µM [inhibitor, single point], Cc1cc(C)n(CCNC(=O)c2ccccc2OC2CCN(S(C)(=O)=O)CC2)n1 39.8 µM [inhibitor, single point], COC(=O)CNC(=O)C1CN(Cc2ccccc2)C(=O)N1 (configuration not stated) 3.98 µM [inhibitor, full curve, poor fit], OCC1CN(Cc2ccc(C(F)(F)F)cc2)CC12CCNCC2 (configuration not stated) 39.8 µM [inhibitor, single point], CCc1ccc(S(=O)(=O)c2nnn3c2nc(N2CCCC(C)C2)c2cc(Cl)ccc23)cc1 (configuration not stated) 39.8 µM [inhibitor, single point], CCNC(=O)N1CCc2cc(OC)c(OC)cc2C1CNC(=O)c1ccccc1C (configuration not stated) 39.8 µM [inhibitor, single point], COCC(=O)NC1CCC12CCN(C(=O)NC1CCCCC1)CC2 (configuration not stated) 0.708 µM [inhibitor, full curve, poor fit], Cc1ccc(NC(=O)CSc2[nH]c(=O)ncc2C)cc1 39.8 µM [inhibitor, single point], Cc1ccc(NC(=O)Cc2ccc(NC(=O)N3CCCCc4ccccc43)cc2)cc1 28.2 µM [inhibitor, single point], COc1ccc(F)cc1S(=O)(=O)N1[C@@H]2CC[C@H]1CC(NC(=O)c1ccc(F)cc1)C2 (some centres not stated) 3.16 µM [inhibitor, single point], N#CC1CCN(Cc2ccccc2OCC(O)CN2CCCCC2)CC1 (configuration not stated) 6.31 µM [inhibitor, single point], Cc1cccc(N2CCN(c3ccc(C(=O)O)cc3NC(=O)c3ccccc3F)CC2C)c1 (configuration not stated) 39.8 µM [inhibitor, single point], CN(Cc1cccn1C)CC1CCCCC1 89.1 µM [inhibitor, single point], CCOc1ccc(C(=O)N2CCN(c3cc(-c4ccc(Cl)cc4)[nH]n3)CC2)cc1OCC 8.91 µM [inhibitor, partial curve], CC(C)Oc1ccc(CNC(=O)CCCn2c(=O)c3cccn3c3cccnc32)cc1 39.8 µM [inhibitor, single point], CCOC(=O)C(Cc1c[nH]c2ccccc12)NC(=O)COc1ccc(Cl)cc1 (configuration not stated) 15.8 µM [inhibitor, partial curve, poor fit], O=S(=O)(c1ccc(Br)cc1)c1nnn2c1nc(NCc1cccs1)c1sccc12 0.178 µM [inhibitor, partial curve, poor fit], Fc1ccc(CN2CCNc3cnc(-c4ccccc4)cc3C2)cc1F 50.1 µM [inhibitor, single point], Cc1nc(C)c(C(=O)N2CCC(Oc3ccccc3-c3nc(-c4ccccc4)no3)C2)s1 (configuration not stated) 20 µM [inhibitor, partial curve], CN1C(=O)C2(CCN(Cc3ccc(F)cc3)C2)c2ccccc21 (configuration not stated) 12.6 µM [inhibitor, partial curve, poor fit], O=C(NCc1ccc2c(c1)OCO2)C1COC2(CCCCC2)N1C(=O)Cc1cccs1 (configuration not stated) 39.8 µM [inhibitor, single point], COCCN(C)C[C@H]1C[C@H](CO)CN(C(=O)c2ccc(SC)cc2)C1 39.8 µM [inhibitor, single point], COc1cccc(CC(=O)N2CCC(N3C(=O)C4(CCCCC4)C3c3ccncc3)CC2)c1 (configuration not stated) 3.16 µM [inhibitor, full curve, poor fit], O=C(NC1CCN(c2cc(-c3cccs3)[nH]n2)C1)c1ccc(Br)cc1 (configuration not stated) 2.82 µM [inhibitor, full curve, poor fit], CC1(c2ccccc2)N(Cc2ccccc2)C(=O)OC12CCN(Cc1ccccn1)CC2 (configuration not stated) 56.2 µM [inhibitor, single point], CCOc1ccc(CNC(=O)c2c(C)nn(-c3ccc(F)cc3)c2-n2cccc2)cc1 17.8 µM [inhibitor, single point], CCOc1ccc(CC(=O)Nc2nnc3n2CCS3)cc1 35.5 µM [inhibitor, single point], CN1CCCC1c1nc(C2CN(S(=O)(=O)Cc3cccc(F)c3)C2)no1 (configuration not stated) 25.1 µM [inhibitor, partial curve, poor fit], Cc1ccc(-c2nnc(SCC(=O)N3CCc4ccccc43)o2)cc1 7.08 µM [inhibitor, single point], O=C(c1ccc(F)cc1)N1CCCC(n2cc(-c3nc(-c4ccccc4)no3)nn2)C1 (configuration not stated) 39.8 µM [inhibitor, single point]

Potency, inactive:
Cc1cnn(CC(=O)N2CCC3(CC2)CN(c2ncccn2)CC3CO)c1 (configuration not stated), COC[C@H]1CCCN1C(=O)C[C@@H]1C[C@H]2O[C@H](CNC(=O)N[C@@H](C)c3ccccc3)[C@@H](O)[C@H]2O1, CCOC(=O)Cc1csc(NC(=O)Cn2nc3c(cc2=O)CCCC3)n1, CCc1ccc(C(=O)NC2CCN(c3cc(-c4cccs4)[nH]n3)C2)cc1 (configuration not stated), CNC[C@H](O)c1ccc(O)c(O)c1, O=C1CCN(C(=O)c2cccs2)CCCC(C(=O)N2CCN(c3ccccn3)CC2)CCN1 (configuration not stated), COCCC1(NC(=O)NC2CCCCC2)CCN(S(C)(=O)=O)CC1, Cc1ccc(NC(=O)N2CCCOCCNC(=O)[C@@H]3CCCC[C@@H]32)cc1C, CCN1CCN(CCCNC(=O)C2CCCCC(=O)N2Cc2cccc(OC)c2)CC1 (configuration not stated), CN(C)C(=O)c1cc(C(C)(C)C)c2cccn2n1, Cc1ccc(-n2nc3n(c2=O)CCN(C(=O)c2ccc(Cl)nc2)C3)cc1, CCc1ccc(C2CC(C(=O)NCc3ccccc3)CN(C(=O)c3ccoc3)C2)cc1 (configuration not stated), CCCc1cc(N2CCC(NCCOC(C)C)CC2)nc(C)n1, Cc1ccccc1-c1ccc2c(n1)CN(Cc1ccccc1)C(=O)CO2, COc1ccc2nc([C@H]3CCN(C4CCCCC4)C3)[nH]c2c1, CN(C)CCNC(=O)C(C)(C)Oc1nn(CCOc2ccccc2)c2ccccc12, CCc1ccc(N2CC(c3noc(-c4ccc5ncccc5c4)n3)CC2=O)cc1 (configuration not stated), c1ccc2c(c1)CCN2C1CN(CC2CCCCC2)C1, Cc1ccc(C(=O)N2CCCN(c3ccnc4ccnn34)CC2)cc1, COCCOC1CN(C2CCN(C(=O)COc3ccc(F)cc3)CC2)C12CCCCC2 (configuration not stated), COCCCn1c(=O)c(C(=O)NCc2ccc3c(c2)OCO3)nc2cccnc21, CC1(c2ccccc2)N(Cc2ccccc2)C(=O)OC12CCN(c1cccnc1)CC2 (configuration not stated), O=C(NCCCc1ccccc1)C1CCCCN1Cc1ccc(-c2ccsc2)cc1 (configuration not stated), CCn1ncc(N2CCCC(CC(=O)NCc3cccc(C)c3)C2)cc1=O (configuration not stated), O=C(NCCc1ccccc1)C1CCCN(Cc2cccc(-c3ccc(F)cc3F)c2)C1 (configuration not stated), O=C(NC1CCCC1)c1cc(-c2cccc(C(F)(F)F)c2)c2cccn2n1, CN(C)C(=O)c1nc(-c2cccc(C(F)(F)F)c2)c2ccccn12, Cc1ccc(C(=O)NC2(C(F)(F)F)C(=O)Nc3c2c(=O)[nH]c(=O)n3CCc2ccccc2)cc1 (configuration not stated), CC(C)(C)c1nc(C(=O)NCc2ccc(F)cc2)n2ccncc12, Oc1c(Br)cc(Br)cc1-c1nc2ccccc2s1, CC1(c2ccccc2)N(Cc2ccccc2F)C(=O)OC12CCN(C(=O)CN1CCOCC1)CC2 (configuration not stated), O=C(NCC(F)(F)F)C1CCCN(Cc2cccc(-c3ccc(F)cc3F)c2)C1 (configuration not stated), CN(C)Cc1cn([C@H]2CO[C@H]3[C@@H]2OC[C@H]3OC(=O)Nc2ccc(C(C)(C)C)cc2)nn1, CC(=O)Nc1ccc(S(=O)(=O)N2Cc3ccccc3OC3(CCN(C(=O)NC(C)C)CC3)C2)cc1, COc1cccc(-c2cc3c(=O)n(CCNC(=O)c4ccc(Cl)cc4)ccn3n2)c1
